In the supplement of paper PMC8728848:
The other results are listed elsewhere or left out.

Columns and labels:
Assay in all cases: glycan array binding signal (z-score within array); higher = stronger binding
Details in all cases: glycan notation: IUPAC condensed, linker removed; mutation: D109R
[1] = target: Gal6S(b1-4)Glc
In short: (§1)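 Negative Z-scores can be read as non-binding. The Z-score is calculated within each array and then averaged across arrays of one protein sequence at different concentrations or buffers and across linkers. Arrays, 3228 in all, were curated from the Consortium for Functional Glycomics database and kept only where the protein sequence was available.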

[2] = target: Gal6S(b1-4)Glc6S
In short: as §1

[3] = target: Gal6S(b1-4)GlcNAc
In short: as §1

[4] = target: Gal6S(b1-4)GlcNAc6S
In short: as §1

[5] = target: GalNAc(a1-3)Gal
In short: as §1

[6] = target: GalNAc(a1-3)GalNAc
In short: as §1

[7] = target: GalNAc(a1-3)GalNAc(b1-3)Gal(a1-4)Gal(b1-4)Glc
In short: as §1

[8] = target: GalNAc(a1-3)GalNAc(b1-3)Gal(a1-4)Gal(b1-4)GlcNAc
In short: as §1

[9] = target: GalNAc(b1-3)Gal
In short: as §1

[10] = target: GalNAc(b1-3)Gal(a1-4)Gal(b1-4)GlcNAc
In short: as §1

[11] = target: GalNAc(b1-3)Gal(a1-4)Gal(b1-4)GlcNAc(b1-3)Gal(b1-4)Glc
In short: as §1

[12] = target: GalNAc(b1-3)Gal(a1-6)Gal(b1-4)Glc
In short: as §1

[13] = target: GalNAc(b1-3)GalNAc
In short: as §1

[14] = target: GalNAc(b1-3)GlcNAc
In short: as §1

[15] = target: GalNAc(b1-4)Gal(b1-4)Glc
In short: as §1

[16] = target: GalNAc(b1-4)GlcNAc
In short: as §1

[17] = target: GalNAc(b1-4)GlcNAc(b1-2)Man
In short: as §1

[18] = target: GalNAc(b1-4)GlcNAc(b1-2)Man(a1-3)[GalNAc(b1-4)GlcNAc(b1-2)Man(a1-6)]Man(b1-4)GlcNAc(b1-4)GlcNAc
In short: as §1

[19] = target: GalNAc(b1-4)GlcNAc(b1-3)GalNAc(b1-4)GlcNAc
In short: as §1

[20] = target: GalNAc(b1-4)GlcNAc6S
In short: as §1

[21] = target: GalNAc(b1-6)GalNAc
In short: as §1

[22] = target: GalNAc3S(b1-4)GlcNAc
In short: as §1

[23] = target: GalNAc3S(b1-4)GlcNAc3S
In short: as §1

[24] = target: GalNAc3S(b1-4)[Fuc(a1-3)]GlcNAc
In short: as §1

[25] = target: GalNAc4S6S(b1-4)GlcNAc
In short: as §1

[26] = target: GalNAc6S(b1-4)GlcNAc
In short: as §1

[27] = target: Glc(a1-4)Glc
In short: as §1

[28] = target: Glc(a1-4)Glc(a1-4)Glc(a1-4)Glc
In short: as §1

[29] = target: Glc(a1-6)Glc(a1-6)Glc
In short: as §1

[30] = target: Glc(a1-6)Glc(a1-6)Glc(a1-6)Glc
In short: as §1

[31] = target: Glc(b1-4)Glc
In short: as §1

[32] = target: Glc(b1-6)Glc
In short: as §1

[33] = target: GlcA(b1-3)Gal
In short: as §1

[34] = target: GlcA(b1-3)GlcNAc
In short: as §1

[35] = target: GlcA(b1-6)Gal
In short: as §1

[36] = target: GlcA3S(b1-3)Gal(b1-4)GlcNAc(b1-2)Man
In short: as §1

[37] = target: GlcA3S(b1-3)Gal(b1-4)GlcNAc(b1-3)Gal(b1-4)Glc
In short: as §1

[38] = target: GlcNAc(a1-3)Gal(b1-4)GlcNAc
In short: as §1

[39] = target: GlcNAc(a1-4)Gal(b1-3)GlcNAc
In short: as §1

[40] = target: GlcNAc(a1-4)Gal(b1-4)GalNAc
In short: as §1

[41] = target: GlcNAc(a1-4)Gal(b1-4)GlcNAc
In short: as §1

[42] = target: GlcNAc(a1-4)Gal(b1-4)GlcNAc(b1-3)Gal(b1-4)Glc
In short: as §1

[43] = target: GlcNAc(a1-4)Gal(b1-4)GlcNAc(b1-3)Gal(b1-4)GlcNAc
In short: as §1

[44] = target: GlcNAc(a1-4)Gal(b1-4)GlcNAc(b1-3)Gal(b1-4)GlcNAc(b1-3)Gal(b1-4)GlcNAc
In short: as §1

[45] = target: GlcNAc(a1-4)Gal(b1-4)GlcNAc(b1-3)Gal(b1-4)[Fuc(a1-3)]GlcNAc(b1-3)Gal(b1-4)[Fuc(a1-3)]GlcNAc
In short: as §1

B1: MpL2 (Macrolepiota procera) (protein)
chain: MSTQVSSGQTYKITNVKAGTVIDLSGEDNKSIIGYPYHSGKNQQWTFNWTGKAWTLRSASSGSYLGIEGTPADGTRLVAVNDPFEWHIWRDEANENAFRIFVPFTNYNLRLSGYGDTTPGTPVQLWWTWEGLHQTWTIDRP
glycan array binding signal (z-score) [1]: -0.27 | glycan array binding signal (z-score) [2]: -0.26 | glycan array binding signal (z-score) [3]: -0.269 | glycan array binding signal (z-score) [4]: -0.289 | glycan array binding signal (z-score) [5]: -0.262 | glycan array binding signal (z-score) [6]: -0.244 | glycan array binding signal (z-score) [7]: -0.254 | glycan array binding signal (z-score) [8]: -0.264 | glycan array binding signal (z-score) [9]: -0.247 | glycan array binding signal (z-score) [10]: -0.19 | glycan array binding signal (z-score) [11]: -0.2 | glycan array binding signal (z-score) [12]: -0.257 | glycan array binding signal (z-score) [13]: -0.254 | glycan array binding signal (z-score) [14]: -0.068 | glycan array binding signal (z-score) [15]: -0.254 | glycan array binding signal (z-score) [16]: 0.327 | glycan array binding signal (z-score) [17]: 0.399 | glycan array binding signal (z-score) [18]: -0.2 | glycan array binding signal (z-score) [19]: 3.89 | glycan array binding signal (z-score) [20]: -0.23 | glycan array binding signal (z-score) [21]: -0.261 | glycan array binding signal (z-score) [22]: -0.269 | glycan array binding signal (z-score) [23]: -0.255 | glycan array binding signal (z-score) [24]: -0.254 | glycan array binding signal (z-score) [25]: -0.266 | glycan array binding signal (z-score) [26]: -0.262 | glycan array binding signal (z-score) [27]: -0.254 | glycan array binding signal (z-score) [28]: -0.296 | glycan array binding signal (z-score) [29]: -0.255 | glycan array binding signal (z-score) [30]: -0.259 | glycan array binding signal (z-score) [31]: -0.265 | glycan array binding signal (z-score) [32]: -0.245 | glycan array binding signal (z-score) [33]: -0.281 | glycan array binding signal (z-score) [34]: -0.244 | glycan array binding signal (z-score) [35]: -0.242 | glycan array binding signal (z-score) [36]: -0.266 | glycan array binding signal (z-score) [37]: -0.307 | glycan array binding signal (z-score) [38]: -0.279 | glycan array binding signal (z-score) [39]: -0.254 | glycan array binding signal (z-score) [40]: -0.275 | glycan array binding signal (z-score) [41]: -0.243 | glycan array binding signal (z-score) [42]: -0.281 | glycan array binding signal (z-score) [43]: -0.257 | glycan array binding signal (z-score) [44]: -0.266 | glycan array binding signal (z-score) [45]: -0.239
